In the supplement of paper PMC11417369:
± gives the standard deviation of the averaged measurements. Some of the results follow.

The sequences below were run on PfAP2-LT AP2 domain (GST-tagged) (assay: gcPBM binding intensity (ln(normalized median fluorescence intensity)); higher = stronger DNA binding).
Method in brief: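 An Agilent 4 × 180k array of primer-extended double-stranded 36-bp intergenic genomic probes, with negative controls, was incubated for 1 h with GST-tagged P. falciparum DNA-binding domains expressed in E. coli. Alexa488 anti-GST antibody detected bound protein, scanned at 488 nm. Binding intensity is the highest Masliner-normalised natural-log median intensity across replicate spots of either probe orientation.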

Sequence | gcPBM binding intensity (ln)
CAAATTATTATTTAAGCACACATGTTTATTTTTTTT [CACACA_site2672] | 8.88 ± 0.4
TAGGCCTTAAATCGTGTGCACTTTTTTTTTTTTTTT | 8.86 ± 0.54
TATGTGCCAAAACACACACACATATATATATATATA [CACACA_site469] | 10.2 ± 0.2
TTTTTTTTTTTTTTTTTTGGTGAGAGAAGAAAATTC [CACACA_negctrl_site950] | 8.07 ± 0.29
AAGCATACATCAAGCACACACACACCCACACCCACA [CACACA_site372] | 10.3 ± 0.42
AAATATATCAATATATATATATATATATATATATAT [XGTACX_negctrl_site544] | 9.65 ± 0.085
TTTTGTACAAAAATAATGCACACTATATCAAGTTTT [CACACA_site3595] | 8.72 ± 0.34
AAGAAAATATATTCACATGAAGAATTAAAATAAAAC [TGCATGCA_negctrl_site119] | 8.86 ± 0.52
ATATAAAAAGGAAAAAGTACAAAAAAATGTTTGTGA [XGTACX_site8552] | 8.63 ± 0.49
TGGATATAAAACAACGTGCACTTGGTTGATTTTAAA [GTGCAC_site9900] | 8.63 ± 0.46
ATTTATTTATATAATACACACAAATATCTTAATTAA [CACACA_site3993] | 8.65 ± 0.45
TATGGTAAATACAACACACACACATATGTATTTATA [CACACA_site4666] | 9.51 ± 0.3
AAAATACTTTGAATTTGTACATATAGACATAATATT [XGTACX_site6181] | 8.63 ± 0.4
CGCGAACATACATACACACACATATTTATATAGGTA [CACACA_site6241] | 9.53 ± 0.38
AAAGAAATAAAAAAAAGTACACAATTATAAATATAT [XGTACX_site3428] | 8.85 ± 0.54
GTATGTAATATTTTAGTGCAAAAAAAAAAAAAAAAA [GTGCAC_site9790] | 8.48 ± 0.58
GATTATCTATCGCTTGAATGAAATGAAATCATGCAA [GTGCAC_negctrl_site471] | 8.58 ± 0.41
AATACCGGAAAGCAAACACACATTTTAAAACCATAA [CACACA_site3862] | 9.26 ± 0.42
ATAATAAATGATAGCACACATATGTACATATATACA [CACACA_site864] | 9.14 ± 0.38

Sequence | gcPBM binding intensity (ln)
AAATAAAATAAAAGCACACAAAATGTAAATAATTAT [CACACA_site2775] | 9.15 ± 0.44
TAATAATTATTGCACGCACACAAAAACCTATAGATT [CACACA_site2931] | 9.09 ± 0.45
ATTTATAAAACAGGCACACATATAATAAATTTTATA [CACACA_site2600] | 8.82 ± 0.45
ACTATAAATATTTATAAACACACAAATATATATATT [CACACA_site7891] | 8.84 ± 0.38
ATACAATACACCGAACGTACATAAATCTATCTTTTA [XGTACX_site3668] | 8.96 ± 0.4
ATTTTTTTTTTTACAGTGGAACCATATTTGCTCATT [CACACA_negctrl_site940] | 8.82 ± 0.51
TATATATATATAATTTGTACATATATATGTAACAAT [XGTACX_site8728] | 8.79 ± 0.28
TTCTGCTACCACTTGAATGTCAATGAAATTAAAAAA [CACACA_negctrl_site1164] | 8.31 ± 0.45
GTATGTTAATTTAATTGTACAAAAAGATACACTGAT [XGTACX_site5710] | 8.81 ± 0.44
TTTTAAAAAAAACAAAAACATTGTCATATGGAAAAT [CACACA_negctrl_site297] | 8.49 ± 0.38
AAATATAAAAAATATACACACATATAAAATCTATAT [CACACA_site7406] | 8.98 ± 0.43
AGGAACAATATATTTGCACACAAAAAATATATATTT [CACACA_site3316] | 9.18 ± 0.43
CAAAAAAAATTATACACACACACACCGATATATATA [CACACA_site4719] | 10.02 ± 0.05
TTTATATATCAATACATTATGTATTAAGTCTTACAT [TGCATGCA_negctrl_site499] | 8.84 ± 0.49
TTTTAATTAAAAAAATATATAATAAAATTAAATTAT [CACACA_negctrl_site95] | 8.21 ± 0.49
GGTATATAAAAATATTGTACGAAAATATGCATATAA [XGTACX_site2501] | 8.85 ± 0.43
CAAAACAAGCAAAAATGTACTTGATAAATATTTTCT [XGTACX_site1776] | 8.79 ± 0.51
ATGTTAATCATTAAAAATAAAGTTTAATATAAGAAT [XGTACX_negctrl_site155] | 8.64 ± 0.45
AACATACCCATATACACACACACATAAATACAGATA [CACACA_site4744] | 10.1 ± 0.35

Sequence | gcPBM binding intensity (ln)
ATTTAATTCTTTTGTTATAAAATTTTAGTATATATA [CACACA_negctrl_site1649] | 8.57 ± 0.45
TATATAGGTAAAAAATGTACTTATATTGAATATATT [XGTACX_site4414] | 8.56 ± 0.42
TTTCCCAAGCTTATTACACACAAGTAGAATAAGCTT [CACACA_site1561] | 8.7 ± 0.36
TTTACAATATTAAAATGTACATATAAAATAAATAAA [XGTACX_site8367] | 8.54 ± 0.46
AATTTGTTAATATTTTGTACACATAATATAAAAACA [XGTACX_site2224] | 8.55 ± 0.42
GATATCAAATATAAATGTACAAATTATATATACATA [XGTACX_site3228] | 8.8 ± 0.31
TTCTTATTTATTTTCTTCTCCTTCCTCAAATTTTTT [GTGCAC_negctrl_site592] | 8.61 ± 0.61
GAGAAAGATATATACACACACATAAATATGTACATA [CACACA_site6975] | 9.59 ± 0.37
ATACAATAAAATAAGTTTGAATAAAATTAAATATAT [CACACA_negctrl_site877] | 8.64 ± 0.45
TCCTTTTTTAAAAGTTGTACATTATTGTTATTTGTT [XGTACX_site4686] | 8.82 ± 0.52
TTCCTCTTAATATGTGCACACTAAATTATAACCTAA [CACACA_site5751] | 8.88 ± 0.38
GAAGGAAATAATAGTAGTACAAATGGTAAGAAATAT [XGTACX_site5845] | 9.31 ± 0.59
TTTACAATATAAAATACACACACACTAACATATATT [CACACA_site9231] | 9.59 ± 0.028
TATATAAATGTTATCACACACTCACGTTTGACAAAA [CACACA_site6468] | 8.83 ± 0.45
AATATAATACAATATTGTACATAATATAAATTAAAA [XGTACX_site4064] | 8.83 ± 0.55
ATTATATTTATGTTGGTGCATTATACATGAAATTTA | 8.68 ± 0.4
ATGTCATAAATGTACGCACACATACATAAACATATA [CACACA_site4530] | 9.31 ± 0.28
TTCATTTTAATTTCCAGTACACATATATATACATAT [XGTACX_site558] | 8.96 ± 0.5
